Measured values as given in the supplement of paper PMC9334596.
Several values for one entry are separate records, joined by “and”; a condition that tells them apart may be missing. Identical values can stand only once. In all, about 5,300 compounds were measured (“PER2::LUC luminescence relative to vehicle control”: median about 0.96, highest 2% from about 1.3 on). The list shows a part of the results.

Tested on: mPer2Luc MEF
Experiment: PER2::LUC luminescence relative to vehicle control (fold of vehicle); higher = higher PER2::LUC reporter signal
Details: 10 µM
Method in brief: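 The value is PER2::LUC luminescence expressed as fold of vehicle control. Mouse embryonic fibroblasts carrying the mPer2Luc reporter were seeded at ~3000 cells per well in 384-well plates and grown in DMEM with 10% FBS at 37 °C and 5% CO2. Compounds from commercial libraries were added at 10 μM 48 h after seeding, and luminescence was read with the ONE-Glo luciferase assay system 24 h and 30 h after treatment, followed by an alamarBlue viability assay.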

| SMILES | PER2::LUC luminescence (time after treatment 24 h) | PER2::LUC luminescence (time after treatment 30 h) |
| --- | --- | --- |
| Clc1ccc(Nc2nnc(Cc3ccncc3)c3ccccc23)cc1 | 0.783 | 0.673 |
| O=C1NC(=O)/C(=C/c2cccc(C(F)(F)F)c2)S1 | 1.02 | 1.06 |
| Cc1cc(O)c2c(c1)C(=O)c1cc(O)cc(O)c1C2=O | 1.18 | 1.2 |
| CC(C)CN(C[C@@H](O)[C@H](Cc1ccccc1)NC(=O)O[C@H]1CO[C@H]2OCC[C@H]21)S(=O)(=O)c1ccc(N)cc1 | 1.05 | 1.06 |
| Cc1cc2nc3c(=O)[nH]c(=O)nc-3n(CC(O)C(O)C(O)COP(=O)(O)O)c2cc1C (stereo unspecified) | 0.997 | 0.975 |
| COc1cc(/C=C/C(=O)CC(=O)/C=C/c2ccc(O)c(OC)c2)ccc1O | 0.568 | 0.879 |
| O=C(O)CSCC(=O)NC1CCSC1=O (stereo unspecified) | 0.896 | 0.847 |
| Cc1cc2c(F)c(Oc3ncnn4cc(OC[C@@H](C)O)c(C)c34)ccc2[nH]1 | 0.981 and 0.929 | 0.917 and 0.933 |
| CC(C)=CCOc1cc2oc(=O)ccc2cc1O | 0.944 | 1.04 |
| O=C1c2cccc3c2[C@H](CCC3)CN1[C@@H]1CN2CCC1CC2 | 0.767 | 0.668 |
| CCCCCCN(CCCCCC)C(=O)Cc1c(-c2ccc(Cl)cc2)[nH]c2ccc(Cl)cc12 | 0.985 | 0.959 |
| NCC[C@H](O)C(=O)N[C@@H]1C[C@H](N)[C@@H](O[C@H]2O[C@H](CN)[C@@H](O)[C@H](O)[C@H]2O)[C@H](O)[C@H]1O[C@H]1O[C@H](CO)[C@@H](O)[C@H](N)[C@H]1O | 1.08 and 0.691 | 0.942 and 0.938 |
| COc1ccc2c(c1)OC[C@@H](Cc1ccc(OC)c(OC)c1)[C@H]2O | 0.919 | 0.852 |
| CC(C)C(=O)Nc1ccc([N+](=O)[O-])c(C(F)(F)F)c1 | 0.959 | 1.17 |
| Cn1cnc([N+](=O)[O-])c1Sc1ncnc2[nH]cnc12 | 0.845 | 0.837 |
| CC(=O)Oc1cc2c(s1)CCN(C(C(=O)C1CC1)c1ccccc1F)C2 (stereo unspecified) | 1.03 | 0.985 |
| COc1c2c(nc3ccccc13)OC(C(C)(O)CO)C2 (stereo unspecified) | 1.11 | 1.08 |
| C#CCCC(=O)O | 1.07 | 0.985 |
| CC(=O)Oc1ccc(O)cc1 | 0.907 | 1.01 |
| CC1(C)CCC2=C(O1)c1ccccc1C(=O)C2=O |  | 0.807 and 0.31 |
| CC(=O)OCC[N+](C)(C)C | 1.01 | 1.07 |

| SMILES | PER2::LUC luminescence (time after treatment 24 h) | PER2::LUC luminescence (time after treatment 30 h) |
| --- | --- | --- |
| S=C(NCc1ccc2c(c1)OCO2)N1CCN(c2ncnc3c2oc2ccccc23)CC1 | 0.176 | 0.229 |
| O=C(O)c1nc2cc(Cl)c(Cl)cc2nc1O | 1.07 | 0.988 |
| CCC(=O)NC1CCc2cccc(OC)c2C1 (stereo unspecified) | 0.911 | 0.961 |
| CC(=O)O[C@H]1C[C@@H](OC(C)=O)C(C)(C)C2CC(=O)[C@]3(C)C(CC[C@@]4(C)[C@H](c5ccoc5)OC(=O)[C@H]5O[C@]543)[C@]21C (stereo partly specified) | 0.894 | 0.926 |
| Ic1cccc(/C=N/Nc2nc(N3CCOCC3)nc(N(c3ccccc3)c3ccccc3)n2)c1 | 1.3 | 1.15 |
| OCCN1C[C@H](O)[C@@H](O)[C@H](O)[C@H]1CO | 0.433 | 0.775 |
| CCc1c(C(=O)NNC(=O)[C@H](O)c2cc(F)cc(F)c2)ccc(O)c1C | 1 | 0.957 |
| CC(=O)SCC(Cc1ccccc1)C(=O)NCC(=O)OCc1ccccc1 (stereo unspecified) | 0.847 and 1.09 | 1.07 and 1.06 |
| O=C(O)/C=C/c1cnc[nH]1 | 0.983 | 0.995 |
| N[C@@H](CSCCCO)C(=O)O | 0.965 | 0.985 |
| C[C@H](CCC(=O)O)[C@H]1CC[C@H]2[C@@H]3CC[C@@H]4C[C@H](O)CC[C@]4(C)[C@H]3CC[C@]12C | 1.01 | 0.973 |
| Cn1c(Nc2ccc(C(F)(F)F)cc2)nc2cc(Oc3ccnc(-c4ncc(C(F)(F)F)[nH]4)c3)ccc21 | 1.1 | 1.01 |
| CCOC(=O)[C@@]1(CCCCCCOc2ccc(Cl)cc2)CO1 | 1.05 | 0.984 |
| COc1cc(Oc2ccnc3cc(OC)c(OC)cc23)ccc1NC(=O)NC(C)c1nccs1 (stereo unspecified) | 0.932 | 1.02 |
| CCNC(=O)[C@@H]1CCCN1C(=O)[C@H](CCCN=C(N)N)NC(=O)[C@H](CC(C)C)NC(=O)[C@@H](C)NC(=O)[C@H](Cc1ccc(O)cc1)NC(=O)[C@H](CO)NC(=O)[C@H](Cc1c[nH]c2ccccc12)NC(=O)[C@H](Cc1cnc[nH]1)NC(=O)[C@@H]1CCC(=O)N1 | 1.2 | 0.959 |
| COC(=O)C1=C(C)NC(C)=C(C(=O)OC(C)C)C1c1cccc2nonc12 (stereo unspecified) | 0.955 | 0.797 |
| COCC(=O)Nc1c(I)c(C(=O)NCC(O)CO)c(I)c(C(=O)N(C)CC(O)CO)c1I (stereo unspecified) | 0.507 | 0.777 |
| C[C@@]1(O)CCOC(=O)C1 | 0.929 | 0.941 |
| CCOC(=O)Nc1ccc(NCc2ccc(F)cc2)nc1N | 0.981 | 0.937 |
| CCOc1cc(C(C)(C)C)ccc1C1=N[C@@](C)(c2ccc(Cl)cc2)[C@@](C)(c2ccc(Cl)cc2)N1C(=O)N1CCN(CCCS(C)(=O)=O)CC1 | 0.851 | 0.64 |
| CN1CCN(c2cc3c(cc2F)c(=O)c(C(=O)O)cn3-c2ccc(F)cc2)CC1 | 0.702 | 1.12 |

| SMILES | PER2::LUC luminescence (time after treatment 24 h) | PER2::LUC luminescence (time after treatment 30 h) |
| --- | --- | --- |
| O=C(O)CCCC[C@@H]1SC[C@@H]2NC(=O)N[C@@H]21 | 1.14 and 0.996 | 0.894 and 0.906 |
| CC1COc2c(N3CCN(C)CC3)c(F)cc3c(=O)c(C(=O)O)cn1c23 (stereo unspecified) | 0.979 | 0.779 |
| O=C(/C=C/N1C[C@H]2C[C@@H]1CN2c1ccccn1)c1ccccc1O | 1.07 | 0.955 |
| COc1ccc(-c2cc3nccn3c(Nc3ncccc3C(N)=O)n2)cc1OC | 0.257 | 0.352 |
| COc1ccc(CCn2nnnc2C2(c3ccc(C)cc3)CC2)cc1 | 1.12 | 0.969 |
| COc1ccc(CCC(=O)Nc2nc3ccc(Cl)cc3s2)cc1OC | 0.875 and 0.954 | 1.04 and 0.951 |
| NC(=O)C[C@H](NC(=O)Cc1ccc(O)cc1O)C(=O)O | 1.03 | 1.01 |
| C=C1C(=O)O[C@H]2[C@H]1CC/C(C)=C/CC[C@@]1(C)O[C@@H]21 | 1.06 | 0.877 |
| COc1cccc(O)c1O | 1.06 | 0.924 |
| CCCCOc1ccc(C(=O)CCN2CCCCC2)cc1 | 0.957 | 1.41 |
| C[C@H](CC(=O)[C@@H]1OC1(C)C)[C@H]1C(=O)C[C@@]2(C)C3=CC[C@H]4C(C)(C)[C@@H](O[C@@H]5OC[C@@H](O)[C@H](O)[C@H]5O)CC[C@@]45C[C@@]35[C@@H](O)C[C@]12C | 0.93 | 0.911 |
| C[C@]12CC[C@H](O)CC1=CC[C@@H]1[C@@H]2CC[C@]2(C)C(c3cccnc3)=CC[C@@H]12 | 1.11 | 1.01 |
| CC(C)(C)CC(C)(C)c1ccc(OCCOCC[N+](C)(C)Cc2ccccc2)cc1 | 0.206 | 0.228 |
| O=[N+]([O-])c1cn2c(n1)OC[C@@H](OCc1ccc(OC(F)(F)F)cc1)C2 | 0.716 | 0.923 |
| Cn1nnc2c(C(N)=O)ncn2c1=O | 0.957 and 0.946 | 1.09 and 0.894 |
| CN1[C@@H]2CC[C@H]1C[C@@H](OC(=O)C(O)c1ccccc1)C2 (mixture of isomers) | 0.871 | 0.782 |
| CN1[C@@H]2CC[C@H]1C[C@@H](OC(=O)C(O)c1ccccc1)C2 (stereo partly specified) | 0.492 | 0.82 |
| Cc1ccc(C(=O)N(CCCN)[C@@H](c2oc3cc(Cl)ccc3c(=O)c2Cc2ccccc2)C(C)C)cc1 | 0.328 | 0.378 |
| C=CC1=C(C)/C(=C/c2[nH]c(Cc3[nH]c(/C=C4\NC(=O)C(C)=C4C=C)c(C)c3CCC(=O)O)c(CCC(=O)O)c2C)NC1=O | 0.971 | 0.968 |
| C=CC[N+]1([C@H]2C[C@H]3[C@@H]4CC[C@H]5C[C@H](O)[C@@H](N6CCOCC6)C[C@]5(C)[C@H]4CC[C@]3(C)[C@H]2OC(C)=O)CCCC1 | 1.11 | 1.05 |
| CC(C)(C)NC(=O)[C@H]1CC[C@H]2[C@@H]3CC[C@H]4NC(=O)C=C[C@]4(C)[C@H]3CC[C@]12C | 0.824 | 1.22 |

| SMILES | PER2::LUC luminescence (time after treatment 24 h) | PER2::LUC luminescence (time after treatment 30 h) |
| --- | --- | --- |
| CC(C)=CCCC1(C)C=Cc2c(O)c3c(c(CC=C(C)C)c2O1)OC12C(=CCCC1C(C)(C)O[C@@]2(C/C=C(\C)C(=O)O)C(=O)O)C3=O (stereo partly specified) | 0.994 | 0.959 |
| C=C1CC[C@H](O)C/C1=C/C=C1\CCC[C@]2(C)[C@@H]([C@H](C)/C=C/[C@H](C)C(C)C)CC[C@@H]12 | 0.957 and 0.908 | 1.15 and 0.89 |
| Nc1nc(N)c2nc(-c3ccccc3)c(N)nc2n1 | 0.822 and 1.03 | 1.17 and 0.912 |
| C[N+](C)(C)CC(O)CC(=O)[O-] (racemic) | 1.07 and 0.921 | 1.03 and 0.954 |
| CC(=O)NC(CC(C)C)C(=O)O (stereo unspecified) | 1 | 1.05 |
| CC(C)C(=O)c1c(C(C)C)nn2ccccc12 | 1.04 | 0.829 |
| C[C@H]1[C@H]2CC[C@H]3[C@@H]4CC=C5C[C@@H](N(C)C)CC[C@]5(C)[C@H]4CC[C@]23CN1C | 0.747 | 0.801 |
| O=C(O)c1c[nH]c(=O)cn1 | 1.08 | 0.999 |
| Nc1ncnc2c1ncn2[C@@H]1O[C@@H]2COP(=O)(O)O[C@H]2[C@H]1O | 1.08 | 0.954 |
| CC1=C(/C=C/C(C)=C/C=C/C(C)=C/C=C/C=C(C)/C=C/C=C(C)/C=C/C(=O)[C@]2(C)C[C@@H](O)CC2(C)C)C(C)(C)C[C@H](O)C1 | 0.964 | 0.922 |
| CCS(=O)(=O)N1CCN(c2ccc(Nc3ncc(C(N)=O)c(NC4CC4)n3)cc2)CC1 | 0.537 | 0.546 |
| Cn1cnc(=N)c2[nH]cnc21 | 1.12 | 1.07 |
| C[N+](C)(C)C[C@H](O)CC(=O)[O-] | 1.05 | 1.03 |
| O=C(O[C@@H]1Cc2c(O)cc(O)cc2O[C@@H]1c1cc(O)c(O)c(O)c1-c1c([C@H]2Oc3cc(O)cc(O)c3C[C@H]2OC(=O)c2cc(O)c(O)c(O)c2)cc(O)c(O)c1O)c1cc(O)c(O)c(O)c1 | 0.983 | 0.904 |
| CC(=O)/C(=C\c1ccccc1)CC(=O)O | 0.926 | 0.97 |
| OC(CCN1CCCC1)(c1ccccc1)C1CCCCC1 (stereo unspecified) | 0.699 | 0.797 |
| CC(C)NCC(O)COc1cccc2[nH]ccc12 (stereo unspecified) | 0.955 | 0.911 |
| CC(C)=CCC[C@@H](C)[C@@H]1CC[C@]2(C)C3=C(CC[C@@]12C)[C@@]1(C)CC[C@H](O)C(C)(C)[C@@H]1CC3 | 1.01 | 1.15 |
